Source: patent US20220002380A1 (CONSEJO SUPERIOR DE INVESTIGACIONES CIENTIFICAS, published 2022)

Molecular target: T1, human lymphotoxin alpha (hLTα) (human, UniProt P01374 35-205)
T1 sequence: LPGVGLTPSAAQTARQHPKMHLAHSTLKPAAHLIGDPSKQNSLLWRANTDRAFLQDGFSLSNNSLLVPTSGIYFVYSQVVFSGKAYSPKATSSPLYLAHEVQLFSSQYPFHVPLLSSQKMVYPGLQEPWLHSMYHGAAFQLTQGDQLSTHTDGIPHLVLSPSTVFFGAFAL

B1: wild type (WT) Etanercept (TNFR2-Fc) (Fc fusion)
chain: LPAQVAFTPYAPEPGSTCRLREYYDQTAQMCCSKCSPGQHAKVFCTKTSDTVCDSCEDSTYTQLWNWVPECLSCGSRCSSDQVETQACTREQNRICTCRPGWYCALSKQEGCRLCAPLRKCRPGFGVARPGTETSDVVCKPCAPGTFSNTTSSTDICRPHQICNVVAIPGNASMDAVCTSTSPTRSMAPGAVHLPQPVSTRSQHTQPTPEPSTAPSTSFLLPMGPSPPAEGSTGD[gap - human IgG1 Fc]
- Kd: 3.95 nM
